Assay results reported in PubChem BioAssay AID652104 (National Center for Advancing Translational Sciences (NCATS), 2013).
About 7,200 (1.8%) of roughly 410,000 compounds were called active. This list was built around the results that the source calls inconclusive (neither active nor inactive); the mix of calls is not that of the screen. The call rests on the fitted dose curve; in most records, active means well fitted activation curve with a large enough effect; inconclusive means small, poorly fitted or top-dose-only effect, or another doubt; inactive means no such curve, though single readings can be large or run the other way. Where the call is inconclusive, the potency comes from a doubtful curve fit.

experiment: qHTS of TDP-43 Inhibitors; conditions: TDP-43 expressing yeast growth rescue, BacTiter-Glo, 24 h; growth rescue (activation): at 46.1 µM (top of the series) unless noted; further: nearly all actives have a fitted effect of over 50% in size; on growth rescue (activation): % of control where 0% means no effect
Method in brief: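 Cell-based yeast growth screen: TDP-43 expression induced in galactose, inoculum OD600=0.02 after raffinose pregrowth to mid-log. Read-out BacTiter-Glo luminescence at 24 hr, 30 deg C; inhibition of toxicity seen as signal increase.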
Potency means the concentration at half of the fitted maximal effect; tags describe the fitted curve by direction and shape.

Potency, inconclusive:
COc1ccc(NC(C)=O)cc1NS(=O)(=O)c1ccc2c(c1)OCCO2 0.501 µM [activator, full curve, poor fit]
C[C@@H]1CN([C@H](C)CO)C(=O)CCCn2cc(nn2)CO[C@H]1CN(C)C(=O)c1ccccc1 0.316 µM [activator, full curve, poor fit]
CCC(C(=O)OCC(=O)N1CCN(c2ccc(OC)cc2)CC1)c1ccccc1 (stereo not given) 15.8 µM [activator, partial curve]
CC1(C(=O)NS(=O)(=O)c2cccc(C#N)c2)CCN1C(=O)CCC1CCCC1 (stereo not given) 35.5 µM [activator, single point]
COc1cccc(C(=O)Oc2cc3c4c(c2)C(C)=CC(C)(C)N4C(=O)C3=O)c1 12.6 µM [activator, single point]
Cc1c(C(=O)N2CCCCC2)oc2ccc(Br)cc12 17.8 µM [activator, partial curve]
CCc1nc2ccc(C(=O)NCc3ccc(C)o3)cc2nc1CC 14.1 µM [activator, single point]
Cc1cccc(N2CCN(C(=O)c3cn(C)c(=O)c4c3c3ccccc3n4C)CC2)c1C 31.6 µM [activator, single point]
COc1ccc(OC)c(CCNC(=O)c2sc3nc4n(c(=O)c3c2C)CCCC4)c1 12.6 µM [activator, partial curve]
O=C(NC1CCCCC1)c1cc2nc3c(c(C(F)(F)F)n2n1)CCCC3 17.8 µM [activator, partial curve]
COC(=O)c1sc2cc([N+](=O)[O-])cc(SCC(C)C)c2c1N 0.316 µM [activator, full curve, poor fit]
O=C(c1[nH]nc2c1CCc1ccccc1-2)N1CCN(Cc2ccc3c(c2)OCO3)CC1 12.6 µM [activator, partial curve]
O/N=C(/CCc1ccccc1)c1ccc2c(c1)OCCO2 14.1 µM [activator, single point]
N#Cc1ccccc1Sc1ccccc1C(=O)Nc1ccccc1 15.8 µM [activator, single point]
COc1ccc(-c2cc(C(=O)N(C)Cc3ccccc3F)c3ccccc3n2)cc1OC 11.2 µM [activator, single point]
C=CCNc1ncnc2c1cnn2-c1ccc(C)cc1C 12.6 µM [activator, partial curve]
CCOC(=O)C1=CC[C@@H](c2ccccc2)N(S(=O)(=O)c2ccc(C)cc2)[C@H]1c1ccc(C#N)cc1 0.316 µM [activator, full curve, poor fit]
CCCCN(C)/C=N/c1c(C#N)cnn1-c1ccc(C)cc1 14.1 µM [activator, single point]
COc1ccc(CCNC(=S)Nc2ccc(C(C)C)cc2)cc1 20 µM [activator, single point]
Cc1cccc(NC(=S)N/N=C(\c2ccccc2)C(C)C)c1 17.8 µM [activator, partial curve]
COc1ccccc1-c1cc2nc(C)c(CCC(=O)NC(C)CCc3ccco3)c(C)n2n1 (stereo not given) 35.5 µM [activator, partial curve]
CCCNC(=O)c1cc(-c2ccc(OC)cc2)n(CCCOC)c1C 17.8 µM [activator, single point]
Cc1cc(C)n2nc(Nc3ccccc3)cc2n1 11.2 µM [activator, single point]
Cc1cccc(C)c1OCc1cc(=O)n2ccsc2n1 14.1 µM [activator, partial curve]
Cc1ccc(-c2ncccc2OC(=O)C23CC4CC(CC(C4)C2)C3)cc1 31.6 µM [activator, single point]
Cn1cc(-c2csc(C(O)(c3ccccc3)C(F)(F)F)n2)cn1 (stereo not given) 14.1 µM [activator, partial curve]
Cc1cc(SCCOc2ccccc2)nc(N)n1 35.5 µM [activator, single point]
COc1cccc(Nc2ncnc3sccc23)c1 15.8 µM [activator, single point]
Cc1ccc(C)c(NS(=O)(=O)c2ccc3c(c2)CCCN3C(=O)C2CCC2)c1 20 µM [activator, partial curve]
Oc1[nH]c2ccccc2c1N=Nc1cccc(Cl)c1 11.2 µM [activator, partial curve]
N/C(=N\OC(=O)c1cccc(F)c1)c1cccc([N+](=O)[O-])c1 7.08 µM [activator, partial curve]
CCCN1Cc2cccc(C(=O)Nc3ccc(OC)cc3OC)c2C1=O 12.6 µM [activator, single point]
Cc1ccc(NC(=O)N2CCc3c([nH]c4ccccc34)C2c2ccccc2F)c(Cl)c1 (stereo not given) 2.82 µM [activator, full curve]
COC(=O)c1sccc1NC(=O)c1ccccc1[N+](=O)[O-] 10 µM [activator, partial curve]
CCOC(=O)C[C@H]1c2cc(F)ccc2S(=O)(=O)N1c1ccccc1 35.5 µM [activator, single point]
COc1ccc(NS(=O)(=O)c2cc(-c3cnc(C4CC4)o3)ccc2C)cc1 22.4 µM [activator, single point]
O=C(c1ccc(Cl)cc1)N1CCN(S(=O)(=O)/C=C/c2ccccc2)CC1 14.1 µM [activator, single point]
CCOC(=O)c1sc2nc(OCc3cccnc3)cc(C)c2c1N 3.98 µM [activator, partial curve]
CCCc1ccc2oc(C(=O)NCCc3nc(C(=O)OCC)cs3)c(C)c2c1 20 µM [activator, single point]
Cc1ccc(OCCC(=O)Nc2ccccc2C(=O)NC2CC2)cc1 31.6 µM [activator, single point]
CC(C)OCCCNc1ncnc2c1cnn2-c1ccccc1 15.8 µM [activator, partial curve]
C=CCN1C(=S)CC(c2ccccc2)=Nc2ccccc21 25.1 µM [activator, partial curve]
Cc1ccc2c(c1)C(=O)c1c(C(=O)O)cccc1-2 3.55 µM [activator, partial curve]
COc1cccc(/C=C(\C#N)c2nc3ccccc3c(=O)[nH]2)c1OC 10 µM [activator, partial curve]
COc1cccc(OCCn2cc(C(C)=O)c3ccccc32)c1 12.6 µM [activator, single point]
N#C/C(=C\c1ccc(O)c(O)c1)C(=O)NCCc1ccccc1 35.5 µM [activator, single point]

Potency, active:
COc1ccc(C2=CC(=O)C[C@H](c3ccc(F)cc3)C2)cc1F 22.4 µM
O=[N+]([O-])c1nn(-c2ccc3c(c2)OCCO3)n(O)c1=NC1CCCCCC1 15.8 µM
COc1cc(OC)c(NC(=O)C(C)n2nc(-c3ccc(C)c(C)c3)ccc2=O)cc1Cl (stereo not given) 12.6 µM
Cc1cc(C)c(C#N)c(SCC(=O)c2cccs2)n1 2.82 µM
CCN(CC)C1=N/C(=C\c2ccc(OC)cc2)C(=O)N1c1ccccc1 22.4 µM
O=C1C=C(c2cccc(Br)c2)C[C@@H](c2ccc3c(c2)OCO3)C1 11.2 µM
CCOc1ccc(Nc2ncnc3onc(-c4ccc(Cl)cc4)c23)cc1 22.4 µM
O=C(c1ccccc1)c1ccc(C(=O)N2CCN(c3ccccc3Cl)CC2)cc1 11.2 µM
COc1ccc(NC(=O)c2ccco2)cc1NC(=O)c1ccc(OC(C)C)cc1 14.1 µM

Growth rescue (activation), inactive:
OC[C@@H]1CN(CCc2ccccc2)C[C@H](n2cnc3c(NCc4ccc(F)cc4)ncnc32)O1 4.17%
CCOc1ccccc1NS(=O)(=O)c1c(C(=O)OC)sc2cccc(F)c12 4.36%
Nc1nc(N2CCN(Cc3ccccc3)CC2)n[nH]1 -20.5%
COc1ccc(-c2[nH]c(-c3ccccc3)nc2SCC(=O)Nc2ccc3c(c2)OCO3)cc1 4.88%
COc1ccccc1C(C(=O)NCc1ccccc1)N(C(=O)c1csnn1)C1CC1 (stereo not given) 2.9%
Cn1cc(Br)c(C(=O)Nc2sc3c(c2C(N)=O)CCC3)n1 -12.1%
CCCOc1ccccc1C(=O)Nc1nc2c(s1)CCCC2 -10.1%
COc1cccc(NC(=O)CSc2nnc(NC(=O)NC3CCCCC3)s2)c1 7.57%
Cc1ccc(N(C)C(=O)c2noc3c2CCCCC3)cc1C 0%
COc1cccc(C(=O)c2cn(CC(=O)Nc3cccc(Cl)c3C)c3nc(C)ccc3c2=O)c1 12.3%
CCn1nccc1C(=O)Nc1ccccc1OC 25.4%
O=C(NC1CC1)C1Nc2ccc(OC(F)(F)F)cc2C2C=CCC12 (stereo not given) 4.57%
Nc1c(C(=O)Nc2ccccc2F)sc2nc(Cc3ccccc3)cc(C(F)(F)F)c12 -5.16%

Growth rescue (activation), inconclusive:
Cc1ccc(C(=O)ONC(=O)c2ccc(Cl)cc2)cc1[N+](=O)[O-] -81.2% [activator]
O=[N+]([O-])c1ccc(S(=O)(=O)c2ccccc2)nc1 -77.1% [activator]
